For 41 sequences, amyloid nucleation score results are on record in the supplement of paper PMC12067230.

This is a noisy data set.
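Note: [psi-pin-] Saccharomyces cerevisiae expressing SupN fusions, induced by 100 µM Cu2SO4, selected 7 d at 30 °C without adenine and uracil, scored by deep sequencing of output versus input.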

The first data set is described as follows: amyloid nucleation score relative to library mode (yeast Sup35 reporter selection) (log enrichment difference); higher = more amyloid nucleation; sequences are the first 22 residues of the Bri2 peptide extended by up to 12 random residues. As to conditions: random library (experiment): 1;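 active = nucleation score significantly above 0 at FDR 0.05; inactive = not significantly above 0 or absent from output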.
EASNCFAIRHFENKFAVETLICWAWVDLKRVTWV: the amyloid nucleation score was -0.0755.
For the sequence EASNCFAIRHFENKFAVETLICWAWWSLGKIV, the amyloid nucleation score was -0.0755.
On to EASNCFAIRHFENKFAVETLICWCASIFGPTKAP, for which the amyloid nucleation score amounted to 4.28.
EASNCFAIRHFENKFAVETLICWCEVGRQHMDAG: the amyloid nucleation score was -0.487.
In turn, EASNCFAIRHFENKFAVETLICWCGCRKGGFRDS had an amyloid nucleation score of 4.66.
Turning to EASNCFAIRHFENKFAVETLICWCGVQGRVARFG, the amyloid nucleation score came to 3.39.
With EASNCFAIRHFENKFAVETLICWCHKC, the amyloid nucleation score entry is “inactive”.
Same read-out and setting: the value for EASNCFAIRHFENKFAVETLICWCHVVL was “inactive”.
Consider EASNCFAIRHFENKFAVETLICWCLLVTVARLSA, for which the amyloid nucleation score came out at 0.00985.
On the same count and under the same terms, under EASNCFAIRHFENKFAVETLICWCNRTDPLRSIG stands “inactive”; under EASNCFAIRHFENKFAVETLICWCR, “inactive”; under EASNCFAIRHFENKFAVETLICWCSLLLAVQAVA, “inactive”.
Same read-out and setting: the value for EASNCFAIRHFENKFAVETLICWCSVGMGLGEY was “inactive”; that for EASNCFAIRHFENKFAVETLICWCVRSPRTPCDG was “inactive”; that for EASNCFAIRHFENKFAVETLICWDALFFCASRN was 4.5.
The same measure, in the same setting: under EASNCFAIRHFENKFAVETLICWDCGQGGLCFTY stands 7.95.

Still in this data set, the particulars now being: random library (experiment): 2.
Take EASNCFAIRHFENKFAVETLICWATNDPMLVNKV: the amyloid nucleation score came out at 0.261.
Regarding EASNCFAIRHFENKFAVETLICWCCCFLSAFVFL, the amyloid nucleation score result is “inactive”.
In the case of EASNCFAIRHFENKFAVETLICWCHISWKLCNRA, the amyloid nucleation score result is “inactive”.
Turning to EASNCFAIRHFENKFAVETLICWCMLEMPHIMVR, the amyloid nucleation score entry was “inactive”.
On the same count and under the same terms, the value for EASNCFAIRHFENKFAVETLICWCPITLSLLLSS was 1.2.
Consider EASNCFAIRHFENKFAVETLICWCRDDVLRVDYK, for which the amyloid nucleation score result is “inactive”.
Turning to EASNCFAIRHFENKFAVETLICWCSIILRTCGTS, the amyloid nucleation score result was “inactive”.
Turning to EASNCFAIRHFENKFAVETLICWCVIRTSYGA, the amyloid nucleation score result is “inactive”.
For EASNCFAIRHFENKFAVETLICWCYPIIVYMSPQ, the amyloid nucleation score entry was “inactive”.
Sequence EASNCFAIRHFENKFAVETLICWCYV registered an amyloid nucleation score of -0.392.
EASNCFAIRHFENKFAVETLICWDCGSLPQRWSP came in with an amyloid nucleation score of 5.03.

Still in this data set, the particulars now being: random library (experiment): 3.
In turn, EASNCFAIRHFENKFAVETLICWAWF showed an amyloid nucleation score of 8.34.
As for EASNCFAIRHFENKFAVETLICWCAFMGQKPPCG, the amyloid nucleation score result was “inactive”.
The same measure, in the same setting: under EASNCFAIRHFENKFAVETLICWCASCDDLWVKG stands 6.49; under EASNCFAIRHFENKFAVETLICWCDLTRERWVPD, “inactive”; under EASNCFAIRHFENKFAVETLICWCESGGLGGS, “inactive”.
The same measure, in the same setting: under EASNCFAIRHFENKFAVETLICWCGLYALSDGNW stands “inactive”; under EASNCFAIRHFENKFAVETLICWCLCRFHARVHL, “inactive”.
The same measure, in the same setting: the value for EASNCFAIRHFENKFAVETLICWCMLVLWGTLRN was “inactive”; that for EASNCFAIRHFENKFAVETLICWCQQRTLSLSSS was “inactive”.
EASNCFAIRHFENKFAVETLICWCTAYRIGLGSS: the amyloid nucleation score result is “inactive”.
The same measure, in the same setting: the value for EASNCFAIRHFENKFAVETLICWCVVQDELCINR was 5.35.
Sequence EASNCFAIRHFENKFAVETLICWCWEASAWRG gave an amyloid nucleation score of -0.0354.
With EASNCFAIRHFENKFAVETLICWCYSRSWRSIEW, the amyloid nucleation score result is “inactive”.
As for EASNCFAIRHFENKFAVETLICWDAPHGG, the amyloid nucleation score result was “inactive”.
